Assay results as given in publication PMC11995724, “Antibiotic target discovery by integrated phenotypic and activity-based profiling of electrophilic fragments” (Cell chemical biology, 2025).
Hit rate of the full screen: of about 3,200 compounds, about 75 (2%) showed an effect of 50% or more. This is one part of the list.

test system: T1, S. aureus MSSA476; set-up: species or system S. aureus MSSA476 (TSB) or V. cholerae SAD30 (LB); 384-well bacterial growth screen at 25 uM, OD600 relative to DMSO control; conditions: relative growth, OD600, TSB; 25 µM; inhibitor
T1 construct: MSSA476

Row | SMILES | % of control remaining [%]
1 | Cc1ccc(C=C(C#N)C(=O)Nc2nccs2)o1 [9-P10, 2-cyano-3-(5-methylfuran-2-yl)-N-(1,3-thiazol-2-yl)prop-2-enamide] | 83.8951
2 | Cc1ccc(F)c(S(=O)(=O)NCCNC(=O)CCl)c1 [7-P12, 2-chloro-N-[2-(2-fluoro-5-methylbenzenesulfonamido)ethyl]acetamide] | 74.7253
3 | Cc1cccc(NC(=O)c2ccccc2NC(=O)CCl)c1 [4-C10, 2-(2-chloroacetamido)-N-(3-methylphenyl)benzamide] | 115.484
4 | N#CC(=Cc1ccc(OC(F)F)cc1)C(=O)Nc1ccccc1 [9-G15, 2-cyano-3-[4-(difluoromethoxy)phenyl]-N-phenylprop-2-enamide] | 122.247
5 | Cc1cc(C(=O)CCl)c(C)n1-c1ccc(C(F)(F)F)cc1 [10-J14, 2-chloro-1-{2,5-dimethyl-1-[4-(trifluoromethyl)phenyl]-1H-pyrrol-3-yl}ethan-1-one] | 0
6 | C=CC(=O)N1CCC(C(=O)Nc2ccc(CC)cc2)CC1 [3-J12, N-(4-ethylphenyl)-1-(prop-2-enoyl)piperidine-4-carboxamide] | 97.5185
7 | CC(Cl)C(=O)N1CCC(NS(=O)(=O)c2cccs2)CC1 (stereo not drawn) [7-L07, N-[1-(2-chloropropanoyl)piperidin-4-yl]thiophene-2-sulfonamide] | 108.32
8 | C=CC(=O)N1CCOC(c2cnn(C)c2)C1 (stereo not drawn) [3-K11, 1-[2-(1-methyl-1H-pyrazol-4-yl)morpholin-4-yl]prop-2-en-1-one] | 119.808
9 | CC(Cl)C(=O)N(Cc1ccco1)C1CCN(C)CC1 (stereo not drawn) [7-L17, 2-chloro-N-[(furan-2-yl)methyl]-N-(1-methylpiperidin-4-yl)propanamide] | 85.4003
10 | Cc1c(NC(=O)CCl)c(=O)n(-c2ccccc2)n1C [5-G17, 2-chloro-N-(1,5-dimethyl-3-oxo-2-phenyl-2,3-dihydro-1H-pyrazol-4-yl)acetamide] | 107.468
11 | C=CC(=O)N1CCOC(Cn2nc(C)nc2C)C1 (stereo not drawn) [1-B09, 1-{2-[(3,5-dimethyl-1H-1,2,4-triazol-1-yl)methyl]morpholin-4-yl}prop-2-en-1-one] | 123.78
12 | C=CC(=O)Nc1ccc2ccn(CCN(C)C)c2c1 [1-L21, N-{1-[2-(dimethylamino)ethyl]-1H-indol-6-yl}prop-2-enamide] | 117.802
13 | CC(Cl)C(=O)Nc1ccc(Cc2nnc3ncccn23)cc1 (stereo not drawn) [7-O22, 2-chloro-N-[4-({[1,2,4]triazolo[4,3-a]pyrimidin-3-yl}methyl)phenyl]propanamide] | 88.54
14 | C=CC(=O)NC1(c2nc(C)no2)CC1 [3-L09, N-[1-(3-methyl-1,2,4-oxadiazol-5-yl)cyclopropyl]prop-2-enamide] | 116.326
15 | C=CC(=O)NC(C)C1(S(C)(=O)=O)CC1 (stereo not drawn) [2-P05, N-[1-(1-methanesulfonylcyclopropyl)ethyl]prop-2-enamide] | 80.7659
16 | Cc1ccccc1NC(=O)C(C#N)=Cc1cc(C)n(C2CC2)c1C [8-A16, 2-cyano-3-(1-cyclopropyl-2,5-dimethyl-1H-pyrrol-3-yl)-N-(2-methylphenyl)prop-2-enamide] | 98.2573
17 | CC(C)C(NC(=O)CCl)c1ccc(Cl)cc1F (stereo not drawn) [7-J22, 2-chloro-N-[1-(4-chloro-2-fluorophenyl)-2-methylpropyl]acetamide] | 84.4584
18 | C=CC(=O)N1CCC(C(=O)N[C@H]2CCO[C@@H]2c2cccnc2)CC1 (racemic) [2-G20, rac-1-(prop-2-enoyl)-N-[(2R,3S)-2-(pyridin-3-yl)oxolan-3-yl]piperidine-4-carboxamide] | 108.268
19 | C=CC(=O)Nc1cc(-c2ccco2)nn1C(C)(C)C [1-K19, N-[1-tert-butyl-3-(furan-2-yl)-1H-pyrazol-5-yl]prop-2-enamide] | 129.407
20 | N#CC(=Cc1cc2c(cc1[N+](=O)[O-])OCO2)C(=O)NC1CCCCC1 [8-F22, 2-cyano-N-cyclohexyl-3-(6-nitro-1,3-dioxaindan-5-yl)prop-2-enamide] | 96.9295
21 | N#CC(=Cc1ccco1)C(=O)Nc1cccc2ncccc12 [8-B20, 2-cyano-3-(furan-2-yl)-N-(quinolin-5-yl)prop-2-enamide] | 84.6473
22 | CC(Cl)C(=O)N1CCn2c(cc3c(Cl)cccc32)C1 (stereo not drawn) [7-D17, 2-chloro-1-{9-chloro-1H,2H,3H,4H-pyrazino[1,2-a]indol-2-yl}propan-1-one] | 101.413
23 | N#CC(=Cc1cccs1)C(=O)Nc1cccc2ccccc12 [9-M22, 2-cyano-N-(naphthalen-1-yl)-3-(thiophen-2-yl)prop-2-enamide] | 109.363

Row | SMILES | % of control remaining [%]
24 | Cc1cc(N(CCC#N)C(=O)CCl)ccc1Cl [4-K15, 2-chloro-N-(4-chloro-3-methylphenyl)-N-(2-cyanoethyl)acetamide] | 119.295
25 | C=CC(=O)Nc1nc(Cc2ccccc2)c(C)s1 [1-B16, N-(4-benzyl-5-methyl-1,3-thiazol-2-yl)prop-2-enamide] | 124.835
26 | Cc1ccc(NC(=O)C(C#N)=Cc2ccsc2)c(C)c1 [9-M19, 2-cyano-N-(2,4-dimethylphenyl)-3-(thiophen-3-yl)prop-2-enamide] | 106.966
27 | N#CC(=Cc1ccccc1O)C(=O)Nc1cccc2ncccc12 [9-G04, 2-cyano-3-(2-hydroxyphenyl)-N-(quinolin-5-yl)prop-2-enamide] | 94.382
28 | COCc1noc(CN2CCN(C(=O)C(C)Cl)CC2)n1 (stereo not drawn) [7-I06, 2-chloro-1-(4-{[3-(methoxymethyl)-1,2,4-oxadiazol-5-yl]methyl}piperazin-1-yl)propan-1-one] | 111.774
29 | CC(Cl)C(=O)NCc1conc1C1CCC1 (stereo not drawn) [5-L21, 2-chloro-N-[(3-cyclobutyl-1,2-oxazol-4-yl)methyl]propanamide] | 115.847
30 | C=CC(=O)NCCc1ccc(S(C)(=O)=O)cc1 [2-A14, N-[2-(4-methanesulfonylphenyl)ethyl]prop-2-enamide] | 121.497
31 | CC(Cl)C(=O)Nc1ccc(S(=O)(=O)N2CCCC2)cc1 (stereo not drawn) [6-M13, 2-chloro-N-[4-(pyrrolidine-1-sulfonyl)phenyl]propanamide] | 92.878
32 | CC(Cl)C(=O)NCCc1nnc(C(C)C)s1 (stereo not drawn) [7-E03, 2-chloro-N-{2-[5-(propan-2-yl)-1,3,4-thiadiazol-2-yl]ethyl}propanamide] | 86.9702
33 | C=CC(=O)NCc1nc(C(C)(C)O)n[nH]1 [2-E15, N-{[3-(2-hydroxypropan-2-yl)-1H-1,2,4-triazol-5-yl]methyl}prop-2-enamide] | 102.35
34 | CC(Cl)C(=O)N1CCN(C(C)c2cccc(C#N)c2)CC1 (stereo not drawn) [7-P22, 3-{1-[4-(2-chloropropanoyl)piperazin-1-yl]ethyl}benzonitrile] | 115.542
35 | CNC(=O)C(F)(F)C1(O)CCN(C(=O)CCl)CC1 [5-F03, 2-[1-(2-chloroacetyl)-4-hydroxypiperidin-4-yl]-2,2-difluoro-N-methylacetamide] | 73.9526
36 | Cc1cccc(NC(=O)CCl)c1C [4-D04, 2-chloro-N-(2,3-dimethylphenyl)acetamide] | 89.5665
37 | COc1cc(NC(=O)CCl)cc(OC)c1 [4-G09, 2-chloro-N-(3,5-dimethoxyphenyl)acetamide] | 119.295
38 | CC(Cl)C(=O)N1CCN(Cc2ccnn2C)CC1 (stereo not drawn) [7-I22, 2-chloro-1-{4-[(1-methyl-1H-pyrazol-5-yl)methyl]piperazin-1-yl}propan-1-one] | 96.3893
39 | N#CC(=Cc1ccco1)C(=O)NS(=O)(=O)c1cccc2cnccc12 [9-H20, 2-cyano-3-(furan-2-yl)-N-(isoquinoline-5-sulfonyl)prop-2-enamide] | 76.1049
40 | CC(c1ccc(S(N)(=O)=O)cc1)N(C)C(=O)CCl (stereo not drawn) [7-H12, 2-chloro-N-methyl-N-[1-(4-sulfamoylphenyl)ethyl]acetamide] | 76.2951
41 | Cc1c(C(=O)N2CCN(C(=O)C(C)Cl)CC2)sc2ccccc12 (stereo not drawn) [7-H09, 2-chloro-1-[4-(3-methyl-1-benzothiophene-2-carbonyl)piperazin-1-yl]propan-1-one] | 115.542
42 | Cn1ncc(C(=O)CCl)n1 [10-J10, 2-chloro-1-(2-methyl-2H-1,2,3-triazol-4-yl)ethan-1-one] | 82.5
43 | C=CC(=O)NC1CCCN(Cc2ccccc2)C1 (stereo not drawn) [1-K12, N-(1-benzylpiperidin-3-yl)prop-2-enamide] | 116.396
44 | CC(C)CN(C(=O)CCl)C1CCS(=O)(=O)C1 (stereo not drawn) [4-D12, 2-chloro-N-(1,1-dioxo-1lambda6-thiolan-3-yl)-N-(2-methylpropyl)acetamide] | 97.9514
45 | C=CC(=O)N(C1CCCC1)C(C)c1nnc2ccccn12 (stereo not drawn) [2-B07, N-cyclopentyl-N-(1-{[1,2,4]triazolo[4,3-a]pyridin-3-yl}ethyl)prop-2-enamide] | 120.801
